Results as given in the supplement of paper PMC12217912.
Some of the results follow. Sequences were assembled here from the parent chain. Values near 0.05 are background.

B1: TEV protease; numbered along this chain (parent)
chain: MGESLFKGPRDYNPISSSICHLTNESDGHTTSLYGIGFGPFIITNKHLFRRNNGTLVVQSLHGVFKVKDTTTLQQHLVDGRDMIIIRMPKDFPPFPQKLKFREPQREERICLVTTNFQTKSMSSMVSDTSCTFPSGDGIFWKHWIQTKDGQCGSPLVSTRDGFIVGIHSASNFTNTNNYFTSVPKNFMELLTNQEAQQWVSGWRLNADSVLWGGHKVFMVKPEEPFQPVKEATQL

Variants of: B1
Experiment: raw area under fraction-flipped curve 0-4 h after induction (AUC4h, not background-subtracted), DNA-recorder readout of cleavage of the substrate (dimensionless); higher = more cleavage of the substrate by the protease variant
Details: temperature: 34 °C; time window: 0-4 h after rhamnose induction
Experimental: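 In vivo DNA recorder in E. coli TOP10(DE3) ΔrhaA at 34 °C. Each TEVp single-site mutant (parent TEVp 0) is paired with a single-site variant of the 7-mer TEVs (canonical ENLYFQ|S). The substrate sits between flexible linkers in a Bxb1-sfGFP-TEVs-SsrA fusion, so cleavage stabilises Bxb1 and speeds flipping of a recombination array, read by NGS. The value is the raw area under the fraction-flipped curve over 0-4 h after rhamnose induction (AUC4h), with ≥20 reads per time point. It is not background-subtracted; inactive controls average about 0.047.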
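Further: Bxb1 expression induced with 0.2% (w/v) L-rhamnose at OD600 near 0.5, cultures sampled hourly, flipped fraction per protease–substrate barcode pair counted by paired-end Illumina sequencing.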

| Variant | area with substrate ENAYFQS | area with substrate ENDYFQS | area with substrate ENEYFQS | area with substrate ENFYFQS | area with substrate ENGYFQS | area with substrate ENNYFQS | area with substrate ENPYFQS | area with substrate ENQYFQS | area with substrate ENSYFQS | area with substrate ENTYFQS | area with substrate ENVYFQS | area with substrate ENWYFQS | area with substrate ENYYFQS | area with substrate ENCYFQS | area with substrate ENMYFQS | area with substrate ENRYFQS | area with substrate ENHYFQS | area with substrate ENIYFQS | area with substrate ENKYFQS |
| --- | --- | --- | --- | --- | --- | --- | --- | --- | --- | --- | --- | --- | --- | --- | --- | --- | --- | --- | --- |
| MGESLFKGPRDYNPISSSICHLTNESDGHTTSLYGIGFGPFIITNKHIFRRNNGTLVVQSLHGVFKVKDTTTLQQHLVDGRDMIIIRMPKDFPPFPQKLKFREPQREERICLVTTNFQTKSMSSMVSDTSCTFPSGDGIFWKHWIQTKDGQCGSPLVSTRDGFIVGIHSASNFTNTNNYFTSVPKNFMELLTNQEAQQWVSGWRLNADSVLWGGHKVFMVKPEEPFQPVKEATQL [L48I] | 0.0593 | 0.0524 | 0.062 | 0.0548 | 0.0611 | 0.0581 | 0.0506 | 0.0635 | 0.072 | 0.0627 | 0.0803 | 0.0544 | 0.0755 |  |  |  |  |  |  |
| MGESLFKGPRDYNPISSSICHLTNESDGHTTSLYGIGFGPFIITNKHKFRRNNGTLVVQSLHGVFKVKDTTTLQQHLVDGRDMIIIRMPKDFPPFPQKLKFREPQREERICLVTTNFQTKSMSSMVSDTSCTFPSGDGIFWKHWIQTKDGQCGSPLVSTRDGFIVGIHSASNFTNTNNYFTSVPKNFMELLTNQEAQQWVSGWRLNADSVLWGGHKVFMVKPEEPFQPVKEATQL [L48K] | 0.0619 | 0.0536 | 0.0633 | 0.0465 |  | 0.0562 |  | 0.0518 | 0.0577 | 0.0675 |  | 0.049 |  | 0.0492 | 0.0741 | 0.0644 |  |  |  |
| MGESLFKGPRDYNPISSSICHLTNESDGHTTSLYGIGFGPFIITNKHMFRRNNGTLVVQSLHGVFKVKDTTTLQQHLVDGRDMIIIRMPKDFPPFPQKLKFREPQREERICLVTTNFQTKSMSSMVSDTSCTFPSGDGIFWKHWIQTKDGQCGSPLVSTRDGFIVGIHSASNFTNTNNYFTSVPKNFMELLTNQEAQQWVSGWRLNADSVLWGGHKVFMVKPEEPFQPVKEATQL [L48M] | 0.0484 | 0.0403 | 0.0648 | 0.064 | 0.0579 | 0.0665 | 0.0566 | 0.072 | 0.0597 | 0.045 | 0.0631 |  |  | 0.0604 | 0.0763 | 0.0516 | 0.0457 |  |  |
| MGESLFKGPRDYNPISSSICHLTNESDGHTTSLYGIGFGPFIITNKHNFRRNNGTLVVQSLHGVFKVKDTTTLQQHLVDGRDMIIIRMPKDFPPFPQKLKFREPQREERICLVTTNFQTKSMSSMVSDTSCTFPSGDGIFWKHWIQTKDGQCGSPLVSTRDGFIVGIHSASNFTNTNNYFTSVPKNFMELLTNQEAQQWVSGWRLNADSVLWGGHKVFMVKPEEPFQPVKEATQL [L48N] | 0.0644 | 0.0624 | 0.0551 | 0.0605 | 0.0512 | 0.0615 | 0.0591 | 0.0533 | 0.0569 |  | 0.0467 | 0.0082 | 0.0545 | 0.0633 |  |  | 0.0624 | 0.0535 |  |
| MGESLFKGPRDYNPISSSICHLTNESDGHTTSLYGIGFGPFIITNKHQFRRNNGTLVVQSLHGVFKVKDTTTLQQHLVDGRDMIIIRMPKDFPPFPQKLKFREPQREERICLVTTNFQTKSMSSMVSDTSCTFPSGDGIFWKHWIQTKDGQCGSPLVSTRDGFIVGIHSASNFTNTNNYFTSVPKNFMELLTNQEAQQWVSGWRLNADSVLWGGHKVFMVKPEEPFQPVKEATQL [L48Q] | 0.0602 | 0.0626 | 0.0607 | 0.0716 | 0.0603 | 0.0635 |  | 0.0562 | 0.0549 | 0.0967 | 0.0805 | 0.0596 | 0.0458 | 0.0662 | 0.0546 | 0.061 | 0.0568 | 0.0558 | 0.0585 |
| MGESLFKGPRDYNPISSSICHLTNESDGHTTSLYGIGFGPFIITNKHRFRRNNGTLVVQSLHGVFKVKDTTTLQQHLVDGRDMIIIRMPKDFPPFPQKLKFREPQREERICLVTTNFQTKSMSSMVSDTSCTFPSGDGIFWKHWIQTKDGQCGSPLVSTRDGFIVGIHSASNFTNTNNYFTSVPKNFMELLTNQEAQQWVSGWRLNADSVLWGGHKVFMVKPEEPFQPVKEATQL [L48R] | 0.0617 | 0.0555 | 0.07 | 0.0803 |  | 0.067 | 0.0676 | 0.0617 | 0.0583 |  | 0.0574 |  | 0.0526 | 0.0663 |  | 0.0593 | 0.0611 | 0.0459 | 0.065 |
| MGESLFKGPRDYNPISSSICHLTNESDGHTTSLYGIGFGPFIITNKHSFRRNNGTLVVQSLHGVFKVKDTTTLQQHLVDGRDMIIIRMPKDFPPFPQKLKFREPQREERICLVTTNFQTKSMSSMVSDTSCTFPSGDGIFWKHWIQTKDGQCGSPLVSTRDGFIVGIHSASNFTNTNNYFTSVPKNFMELLTNQEAQQWVSGWRLNADSVLWGGHKVFMVKPEEPFQPVKEATQL [L48S] | 0.0584 | 0.0648 | 0.0588 | 0.0562 |  | 0.0549 | 0.0648 | 0.0718 | 0.0734 | 0.0603 | 0.0552 |  | 0.0641 | 0.0657 |  | 0.0565 | 0.0744 | 0.0713 | 0.102 |
| MGESLFKGPRDYNPISSSICHLTNESDGHTTSLYGIGFGPFIITNKHVFRRNNGTLVVQSLHGVFKVKDTTTLQQHLVDGRDMIIIRMPKDFPPFPQKLKFREPQREERICLVTTNFQTKSMSSMVSDTSCTFPSGDGIFWKHWIQTKDGQCGSPLVSTRDGFIVGIHSASNFTNTNNYFTSVPKNFMELLTNQEAQQWVSGWRLNADSVLWGGHKVFMVKPEEPFQPVKEATQL [L48V] | 0.0682 | 0.0654 | 0.0573 | 0.0552 | 0.0589 | 0.0594 | 0.0606 | 0.0631 | 0.0642 | 0.0641 | 0.0616 | 0.0565 | 0.0575 | 0.0632 | 0.0604 | 0.059 | 0.0578 | 0.0754 | 0.0741 |
